A collection of fitness landscapes (doi:10.1126/science.1257360)
Some of the results follow.

B1: PhoQ; a variant is named by its letters at X, in order, P23837 (parent)
chain: MKKLLRLFFPLSLRVRFLLATAAVVLVLSLAYGMVALIGYSVSFDKTTFRLLRGESNLFYTLAKWENNKLHVELPENIDKQSPTMTLIYDENGQLLWAQRDVPWLMKMIQPDWLKSNGFHEIEADVNDTSLLLSGDHSIQQQLQEVREDDDDAEMTHSVAVNVYPATSRMPKLTIVVVDTIPVELKSSYMVWSWFIYVLSANLLLVIPLLWVAAWWSLRPIEALAKEVRELEEHNRELLNPATTRELTSLVRNLNRLLKSERERYDKYRTTLTDLTHSLKTPLXXLQXXLRSLRSEKMSVSDAEPVMLEQISRISQQIGYYLHRASMRGGTLLSRELHPVAPLLDNLTSALNKVYQRKGVNISLDISPEISFVGEQNDFVEVMGNVLDNACKYCLEFVEISARQTDEHLYIVVEDDGPGIPLSKREVIFDRGQRVDTLRPGQGVGLAVAREITEQYEGKIVAGESMLGGARMEVIFGRQHSAPKDE

Variants of: B1
Test: enrichment ratio after two sorts for PhoP signalling (ratio (wild type AVST 3.29)); higher = more functional
Settings: with PhoP (E. coli)

| Variant | enrichment ratio |
| --- | --- |
| VGKI | ≤ 0.25 |
| PAAP | ≤ 0.25 |
| GDLV | 3.9 |
| QTER | ≤ 0.25 |
| PPMI | ≤ 0.25 |
| FKQE | ≤ 0.25 |
| IHGR | ≤ 0.25 |
| TWIG | ≤ 0.25 |
| SGPW | ≤ 0.25 |
| SMPI | 1.09 |
| MQSP | ≤ 0.25 |
| KIPH | ≤ 0.25 |
| DYRI | ≤ 0.25 |
| VKMY | ≤ 0.25 |
| WNWK | ≤ 0.25 |
| AMTE | 15.1 |
| VWIF | ≤ 0.25 |
| TVCD | ≤ 0.25 |
| LPRV | ≤ 0.25 |
| DSKR | ≤ 0.25 |
| QSFG | 2.89 |
| FPDM | ≤ 0.25 |
| FFYE | ≤ 0.25 |
| MFWP | ≤ 0.25 |
| LKFY | ≤ 0.25 |
| MEVQ | ≤ 0.25 |

| Variant | enrichment ratio |
| --- | --- |
| PQNM | ≤ 0.25 |
| LGKN | ≤ 0.25 |
| PYPQ | ≤ 0.25 |
| CIAV | ≤ 0.25 |
| FFTY | ≤ 0.25 |
| QYGR | ≤ 0.25 |
| NPKG | ≤ 0.25 |
| TERK | ≤ 0.25 |
| AFAD | ≤ 0.25 |
| WVKV | ≤ 0.25 |
| SNQE | 18.7 |
| YWLV | ≤ 0.25 |
| SWWR | ≤ 0.25 |
| QQFP | ≤ 0.25 |
| HVPC | ≤ 0.25 |
| GSFS | ≤ 0.25 |
| PSPT | ≤ 0.25 |
| FCLC | 7.16 |
| EGME | ≤ 0.25 |
| QLWG | ≤ 0.25 |
| TNVQ | ≤ 0.25 |
| WEYC | ≤ 0.25 |
| GTGG | ≤ 0.25 |
| PCIA | ≤ 0.25 |
| HDHV | ≤ 0.25 |
| TIHA | ≤ 0.25 |

| Variant | enrichment ratio |
| --- | --- |
| PCPD | ≤ 0.25 |
| PNAW | ≤ 0.25 |
| PQDW | ≤ 0.25 |
| RCVA | ≤ 0.25 |
| VLAL | 0.925 |
| RLEF | ≤ 0.25 |
| NGGD | ≤ 0.25 |
| YSMM | 14.3 |
| GSWG | ≤ 0.25 |
| LNAQ | ≤ 0.25 |
| KVMV | ≤ 0.25 |
| VEHV | ≤ 0.25 |
| MSMD | ≤ 0.25 |
| PRVA | ≤ 0.25 |
| NEGY | ≤ 0.25 |
| FADA | ≤ 0.25 |
| PGML | ≤ 0.25 |
| WPAC | ≤ 0.25 |
| WWNA | ≤ 0.25 |
| LKHC | ≤ 0.25 |
| NGCV | ≤ 0.25 |
| TYWK | ≤ 0.25 |
| FCQY | ≤ 0.25 |
| FASG | ≤ 0.25 |
| KMQN | ≤ 0.25 |
| FLAF | ≤ 0.25 |

| Variant | enrichment ratio |
| --- | --- |
| RIWA | ≤ 0.25 |
| GSKS | ≤ 0.25 |
| VNHN | ≤ 0.25 |
| KRLP | ≤ 0.25 |
| VMDC | ≤ 0.25 |
| WDFM | ≤ 0.25 |
| TPVY | ≤ 0.25 |
| LHMM | ≤ 0.25 |
| NTRS | ≤ 0.25 |
| VMWK | ≤ 0.25 |
| PACE | ≤ 0.25 |
| GRIC | ≤ 0.25 |
| IMID | ≤ 0.25 |
| FTCN | ≤ 0.25 |
| TICP | ≤ 0.25 |
| PVFP | ≤ 0.25 |
| GSPE | ≤ 0.25 |
| LHDY | ≤ 0.25 |
| TVYW | ≤ 0.25 |
| TKSM | 6.54 |
| GMIR | 1.56 |
| PHSL | ≤ 0.25 |
| NDML | ≤ 0.25 |
| PHQC | ≤ 0.25 |
| YNAT | ≤ 0.25 |
| QTVG | ≤ 0.25 |

| Variant | enrichment ratio |
| --- | --- |
| PMDP | ≤ 0.25 |
| IEFD | ≤ 0.25 |
| DVDM | ≤ 0.25 |
| ILTM | ≤ 0.25 |
| ANSE | 11.5 |
| MTWV | 0.638 |
| MIML | 14 |
| HCSI | ≤ 0.25 |
| RSIT | ≤ 0.25 |
| NTQH | ≤ 0.25 |
| PAPM | ≤ 0.25 |
| ISEV | ≤ 0.25 |
| QVAC | ≤ 0.25 |
| DHSS | ≤ 0.25 |
| MWAE | ≤ 0.25 |
| RIMV | ≤ 0.25 |
| WDWW | ≤ 0.25 |
| KDFE | ≤ 0.25 |
| YYHC | ≤ 0.25 |
| MWCS | ≤ 0.25 |
| FHHK | ≤ 0.25 |
| HPYA | ≤ 0.25 |
| NVCL | ≤ 0.25 |
| AAVG | 2.19 |
| SMQP | ≤ 0.25 |
| NHNV | ≤ 0.25 |

| Variant | enrichment ratio |
| --- | --- |
| VNIT | 0.43 |
| FDLI | ≤ 0.25 |
| FCSG | ≤ 0.25 |
| KEKM | ≤ 0.25 |
| PTGL | ≤ 0.25 |
| RGIC | ≤ 0.25 |
| DQGT | ≤ 0.25 |
| FCVT | ≤ 0.25 |
| NCAL | ≤ 0.25 |
| MLLC | ≤ 0.25 |
| YHMG | ≤ 0.25 |
| LHSL | ≤ 0.25 |
| QKEG | ≤ 0.25 |
| HMLM | ≤ 0.25 |
| PGTK | ≤ 0.25 |
| RDMT | ≤ 0.25 |
| QAPF | ≤ 0.25 |
| SDGL | ≤ 0.25 |
| DFRY | ≤ 0.25 |
| YERR | ≤ 0.25 |
| TSNY | 8.01 |
| YVRP | ≤ 0.25 |
| PGVY | ≤ 0.25 |
